Assay results reported in the supplement of paper PMC9446081.
Among all 39,000 compounds or so, about 220 (0.56%) showed activity. The list shows a part of the results.

test system: Escherichia coli K-12 BW25113; experiment: relative growth (OD600 normalised to plate interquartile mean) (fraction); higher = less growth inhibition, active = 0.2 or less; details: 50 µM; LB; incubation time: overnight (16-24 h)
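Note: static incubation at 37 °C against the wild-type strain, values averaged over two biological replicates.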

Row | Compound | relative growth
1 | C[C@@H]1CN([C@H](C)CO)S(=O)(=O)c2ccc(C#Cc3ccncc3)cc2O[C@H]1CN(C)C(=O)c1ccncc1 | inactive: 0.977
2 | Cc1noc(C)c1S(=O)(=O)Nc1ccc2c(c1)C(=O)N([C@@H](C)CO)C[C@@H](C)[C@H](CN(C)C(=O)Nc1cccc3ccccc13)OCCCC[C@H](C)O2 | inactive: 1.03
3 | Cn1cnc(CCNC(=O)C[C@@H]2CC[C@@H]3[C@H](COC[C@@H](O)CN3C(=O)Nc3ccc(Cl)cc3)O2)c1 | inactive: 0.993
4 | COc1ccc(CN(C)C[C@H]2OCCCC[C@@H](C)Oc3ccc(NS(=O)(=O)c4ccc(C)cc4)cc3C(=O)N([C@@H](C)CO)C[C@H]2C)cc1 | inactive: 1.02
5 | O=C(C[C@@H]1CC[C@H]2[C@@H](COC[C@H](O)CN2S(=O)(=O)c2ccccc2F)O1)NCc1ccccc1F | inactive: 1.02
6 | C[C@@H]1CN([C@H](C)CO)C(=O)Cc2cc(NC(=O)NC3CCCCC3)ccc2O[C@H]1CN(C)C(=O)Nc1ccc(C(F)(F)F)cc1 | inactive: 1.03
7 | Cc1ccc(S(=O)(=O)N(C)C[C@H]2Oc3ccc(NS(=O)(=O)c4ccc(F)cc4)cc3CC(=O)N([C@H](C)CO)C[C@H]2C)cc1 | inactive: 0.99
8 | C[C@H]1CN([C@@H](C)CO)C(=O)Cc2cc(NC(=O)Cn3cnnn3)ccc2O[C@H]1CN(C)Cc1ccc(-c2ccccc2)cc1 | inactive: 0.961
9 | COc1ccc(NC(=O)N(C)C[C@@H]2OCCCC[C@@H](C)Oc3ccc(NS(=O)(=O)c4ccccc4)cc3C(=O)N([C@H](C)CO)C[C@@H]2C)cc1 | inactive: 1.02
10 | COc1ccccc1C(=O)Nc1ccc2c(c1)C(=O)N(C)[C@@H]1CC[C@H](CC(=O)NCCc3ccncc3)O[C@H]1CO2 | inactive: 0.995
11 | Cc1noc(C)c1S(=O)(=O)Nc1ccc2c(c1)C(=O)N([C@H](C)CO)C[C@H](C)[C@@H](CN(C)Cc1ccc(Oc3ccccc3)cc1)O2 | inactive: 1.01
12 | NNC(=O)COc1ccccc1 | inactive: 1.01
13 | Cn1c(CN)nc2ccccc2c1=O | inactive: 1.01
14 | CN1C(=O)c2cc(NC(=O)Nc3ccccc3F)ccc2OC[C@@H]2O[C@H](CC(=O)NCc3ccc(-c4ccccc4)cc3)CC[C@H]21 | inactive: 1.07
15 | Cc1noc(C)c1S(=O)(=O)Nc1ccc2c(c1)CC(=O)N([C@H](C)CO)C[C@@H](C)[C@H](CN(C)S(=O)(=O)c1cn(C)cn1)O2 | inactive: 0.988
16 | C[C@H]1CN([C@@H](C)CO)C(=O)c2cc(NC(=O)C3CC3)ccc2O[C@H]1CN(C)Cc1ccc(-c2ccccc2)cc1 | inactive: 0.955
17 | C[C@@H]1CCCCO[C@@H](CN(C)Cc2ccc(Cl)c(Cl)c2)[C@H](C)CN([C@H](C)CO)C(=O)c2cc(NC(=O)CCC(F)(F)F)ccc2O1 | inactive: 0.998
18 | COCCNC(=O)C[C@H]1CC[C@@H]2[C@H](COc3ccc(NS(=O)(=O)c4ccc(Cl)cc4)cc3C(=O)N2C)O1 | inactive: 0.999
19 | C[C@@H]1CCCCO[C@@H](CN(C)S(=O)(=O)c2ccc(F)cc2)[C@@H](C)CN([C@@H](C)CO)C(=O)c2cc(NC(=O)Nc3ccc4c(c3)OCO4)ccc2O1 | inactive: 1.01
20 | CN(C)CC(=O)N[C@H]1CC[C@@H](CCNC(=O)C2CCC2)O[C@@H]1CO | inactive: 1
21 | CCC(=O)Nc1ccc2c(c1)C(=O)N(C)C[C@H](OC)[C@@H](C)CN(C(=O)CN1CCOCC1)[C@H](C)CO2 | inactive: 0.982

Row | Compound | relative growth
22 | NCC1(c2cccs2)CCCC1 | inactive: 0.951
23 | C[C@@H]1CN([C@H](C)CO)C(=O)c2cc(NC(=O)c3ccccc3)ccc2O[C@@H](C)CCCCO[C@H]1CN(C)S(=O)(=O)c1ccc(F)cc1 | inactive: 1.04
24 | C[C@H]1CN([C@@H](C)CO)C(=O)c2cccc(NS(C)(=O)=O)c2O[C@H]1CN(C)S(=O)(=O)c1cn(C)cn1 | inactive: 1.02
25 | Cc1noc(C)c1NC(=O)N(C)C[C@@H]1OCCCC[C@@H](C)Oc2ccc(NC(=O)Nc3ccccc3)cc2C(=O)N([C@@H](C)CO)C[C@H]1C | inactive: 0.984
26 | N[C@@H](CC(=O)O)c1cccc(O)c1 | inactive: 0.992
27 | Nc1nc(-c2ccccc2)cc[n+]1[O-] | inactive: 0.844
28 | CC(C)NC(=O)Nc1ccc2c(c1)C(=O)N([C@H](C)CO)C[C@@H](C)[C@@H](CN(C)Cc1ccc3c(c1)OCO3)O2 | inactive: 0.976
29 | CC1(C)[C@H]2C[C@@H](O[C@H]3O[C@@H](CO)[C@@H](O)[C@@H](O)[C@@H]3O)[C@@]1(C)C[C@@H]2O | inactive: 0.988
30 | COCC#Cc1cnc2c(c1)C(=O)N([C@H](C)CO)C[C@H](C)[C@H](CN(C)C(=O)Nc1cc(F)ccc1F)O2 | inactive: 0.976
31 | Cc1cc(C(=O)Nc2cccc3c2O[C@@H](CN(C)C(=O)NC2CCCCC2)[C@H](C)CN([C@H](C)CO)C3=O)n(C)n1 | inactive: 0.983
32 | Cc1ccc(S(=O)(=O)N(C)C[C@H]2Oc3ccc(NS(=O)(=O)c4cccs4)cc3C(=O)N([C@@H](C)CO)C[C@@H]2C)cc1 | inactive: 0.994
33 | C[C@@H]1CCCCO[C@H](CN(C)C(=O)NC2CCCCC2)[C@H](C)CN([C@H](C)CO)C(=O)c2cc(NC(=O)Nc3ccc(F)cc3)ccc2O1 | inactive: 1.03
34 | C[C@H](CO)N1C[C@H](C)[C@@H](CN(C)CC2CCCCC2)Oc2c(NS(=O)(=O)c3cn(C)cn3)cccc2C1=O | inactive: 1.01
35 | CC(C)NC(=O)N(C)C[C@@H]1Oc2cc(-c3ccccc3F)ccc2S(=O)(=O)N([C@@H](C)CO)C[C@H]1C | inactive: 0.917
36 | CC(C)NC(=O)Nc1ccc2c(c1)CC(=O)N([C@@H](C)CO)C[C@H](C)[C@@H](CN(C)C(=O)NC1CCCCC1)O2 | inactive: 1
37 | Cc1noc(C)c1NC(=O)N(C)C[C@H]1Oc2c(NC(=O)c3ccc(-c4nccs4)cc3)cccc2C(=O)N([C@H](C)CO)C[C@@H]1C | inactive: 0.997
38 | C[N+](C)(CCOc1ccccc1)Cc1ccccc1.O=C(O)c1cc2ccccc2c(Br)c1O | inactive: 0.944
39 | CC(C)CC#Cc1ccc2c(c1)O[C@H](CN(C)S(=O)(=O)c1ccc(F)cc1)[C@@H](C)CN([C@@H](C)CO)S2(=O)=O | inactive: 1.02
40 | CN1CCN(C)C2(CCN(C(=O)c3ccn[nH]3)CC2)C1=O | inactive: 0.992
41 | C[C@@H]1CN([C@@H](C)CO)C(=O)c2cc(NS(C)(=O)=O)ccc2O[C@@H](C)CCCCO[C@H]1CN(C)S(=O)(=O)c1cccs1 | inactive: 1.01
42 | Cc1noc(C)c1S(=O)(=O)N(C)C[C@@H]1OCCCC[C@H](C)Oc2ccc(NC(=O)Nc3ccc(C(F)(F)F)cc3)cc2C(=O)N([C@H](C)CO)C[C@H]1C | inactive: 1.02

Row | Compound | relative growth
43 | CCN(CC)CCOc1ccc(Nc2ncc3cc(-c4c(Cl)cccc4Cl)c(=O)n(C)c3n2)cc1 | inactive: 1.01
44 | COCC(=O)Nc1ccc2c(c1)C(=O)N(C)C[C@@H](OC)[C@H](C)CN(Cc1cccc(F)c1)[C@@H](C)CO2 | inactive: 0.972
45 | C[C@@H]1CN([C@H](C)CO)C(=O)c2cc(NC(=O)Cc3ccccc3)ccc2O[C@H]1CN(C)C(=O)Nc1cccc2ccccc12 | inactive: 0.995
46 | COc1ccc(Cc2c(O)[nH]c(N)nc2=O)cc1 | inactive: 0.996
47 | C[C@H](CO)N1C[C@H](C)[C@@H](CN(C)C(=O)Nc2ccccc2)Oc2ccc(NC(=O)Nc3cccc4ccccc34)cc2C1=O | inactive: 1.01
48 | C[C@@H]1CN([C@H](C)CO)C(=O)c2c(c3ccccc3n2C)-c2ccccc2CO[C@@H]1CN(C)Cc1cccc(C(=O)O)c1 | inactive: 0.987
49 | COc1cccc(S(=O)(=O)N(C)C[C@H]2Oc3cc(C4=CCCC4)ccc3S(=O)(=O)N([C@H](C)CO)C[C@@H]2C)c1 | inactive: 0.98
50 | C[C@@H]1CN([C@H](C)CO)C(=O)Cc2cc(NC(=O)CCCCCC(=O)Nc3ccccc3N)ccc2O[C@@H]1CN(C)C(=O)Nc1ccc(C(F)(F)F)cc1 | inactive: 1.02
51 | Cc1cccc(Nc2ccncc2S(=O)(=O)NC(=O)NC(C)C)c1 | inactive: 1.14
52 | CCN1[C@@H]2c3ccc(-c4ccncc4)c(=O)n3C[C@H]1[C@H](CO)[C@H]2C(=O)NCCc1cn(C)cn1 | inactive: 0.99
53 | Nc1ncnc2c1c(-c1ccc(Cl)cc1)nn2-c1cccc(-c2cnnn2Cc2cccc(-c3ccccc3)c2)c1 | inactive: 1.05
54 | C[C@H](CO)N1C[C@H](C)[C@@H](CN(C)Cc2ccc(C(=O)O)cc2)Oc2ccc(NC(=O)c3ccncc3)cc2C1=O | inactive: 0.992
55 | C[C@@H]1CN([C@@H](C)CO)C(=O)c2ccccc2-c2ccccc2CO[C@@H]1CN(C)Cc1cccc2c1OCCCO2 | inactive: 0.989
56 | O=C1NC(=O)[C@@]2(CCOc3ccc(F)cc32)N1 | inactive: 0.972
57 | C[C@@H]1CN([C@@H](C)CO)C(=O)c2cccc(NC(=O)C3CCOCC3)c2O[C@H]1CN(C)C(=O)Nc1ccccc1 | inactive: 0.982
58 | COc1ccc(NC(=O)N(C)C[C@H]2Oc3c(NS(=O)(=O)c4cn(C)cn4)cccc3C(=O)N([C@@H](C)CO)C[C@@H]2C)cc1 | inactive: 0.995
59 | C[C@H]1CCCCO[C@H](CN(C)S(=O)(=O)c2cn(C)cn2)[C@@H](C)CN([C@@H](C)CO)C(=O)c2cc(NC(=O)CCCN(C)C)ccc2O1 | inactive: 1.02
60 | Nc1nnnn1/N=C/c1ccco1 | inactive: 0.998
61 | CO[C@H]1CN(C)C(=O)c2ccc(NS(=O)(=O)c3cn(C)cn3)cc2OC[C@H](C)N(CCC(F)(F)F)C[C@@H]1C | inactive: 1
